This is one part of the list. Most values come without repeats; read them as rough.
Assays:
Assay in all cases: cell count relative to DMSO control; melanoma cells; higher = more viable cells
Conditions in all cases: library dose: standard library concentration; 72 h
[1] = system: SkMel28
[2] = system: SkMel2
[3] = system: SkMel30
[4] = system: SkMel5
[5] = system: UACC257
[6] = system: UACC62
[7] = system: WM115
[8] = system: WM1716
[9] = system: WM1745
[10] = system: WM3526
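Further: cells treated in 1,536-well plates, then fixed and DAPI-stained, with nuclei counted from automated high-throughput microscope images.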

Structure (SMILES)	cell count [1] [%]	cell count [2] [%]	cell count [3] [%]	cell count [4] [%]	cell count [5] [%]	cell count [6] [%]	cell count [7] [%]	cell count [8] [%]	cell count [9] [%]	cell count [10] [%]
Cc1nc(Nc2ncc(C(=O)Nc3c(C)cccc3Cl)s2)cc(N2CCN(CCO)CC2)n1 [dasatanib] + Cn1nnc2c(C(N)=O)ncn2c1=O [temozolomide] (first compound 0.02 µM, partner dose 10 µM)	29	90.9	69.4	76.3	86.8	56.6	59.8	52.1	38.5	93.4
OCCn1cc(-c2cnc3nnn(Cc4ccc5ncccc5c4)c3n2)cn1 + c1cc(-c2cnn3cc(-c4ccc(OCCN5CCCCC5)cc4)cnc23)ccn1 [Dorsomorphin] (first compound 5 µM, partner dose 2 µM)	86.8	84.5	102	72.5	81.9	76.7	81	115	73.5	83.2
C=CCn1c(=O)c2cnc(Nc3ccc(N4CCN(C)CC4)cc3)nc2n1-c1cccc(C(C)(C)O)n1 + COc1ccc(-c2ccc3c(N4CCOCC4)nc(N4C[C@@H](C)O[C@@H](C)C4)nc3n2)cc1CO [KU0063794] (first compound 0.1 µM, partner dose 0.1 µM)	30.9	77.6	67.4	42.6	97.8	85.4	84.9	87.7	43.2	77.6
CO[C@@H]1[C@H](N(C)C(=O)c2ccccc2)C[C@H]2O[C@]1(C)n1c3ccccc3c3c4c(c5c6ccccc6n2c5c31)C(=O)NC4 [Midostaurin] + COc1cc2c(Oc3ccc4[nH]c(C)cc4c3F)ncnc2cc1OCCCN1CCCC1 [cediranib] (first compound 0.4 µM, partner dose 2 µM)	77.2	62.6	75.8	55.3	70.9	72.5	64.1	54.2	44	71.5
CN(C)S(=O)(=O)c1ccc2c(c1)/C(=C/c1cc3c([nH]1)CCCC3)C(=O)N2 + O=S(=O)(c1ccccc1)N(CC(F)(F)F)c1ccc(C(O)(C(F)(F)F)C(F)(F)F)cc1 [T0901317] (first compound 2 µM, partner dose 7 µM)	44.2	75.9	78.5	64.9	82.9	85.5	39.7	74.9	64.9	65.1
C[C@]1(c2nc3c(C(N)=O)cccc3[nH]2)CCCN1 [Veliparib] + O=C1NC(=O)/C(=C/c2ccc(-c3ccc(F)cc3O)o2)S1 [AS252424] (first compound 7 µM, partner dose 5 µM)	96.1	78.8	83.9	67.5	86.6	80.1	77.4	85.3	80	79
NC(=O)Nc1cc(-c2cccc(F)c2)sc1C(=O)N[C@H]1CCCNC1 + Oc1nc(-c2ccc(C(F)(F)F)cc2)nc2c1CSCC2 [XAV939] (first compound 0.1 µM, partner dose 10 µM)	32.1	79.9	79.2	88.9	93.6	63.7	85.5	67.1	50.7	85.9
OCCn1cc(-c2cnc3nnn(Cc4ccc5ncccc5c4)c3n2)cn1 + O=C(O)C(=O)Nc1sc2c(c1C(=O)O)CCNC2 [TCS401] (first compound 5 µM, partner dose 8.33333 µM)	110	88.4	118	85.9	94.2	114	93.4	83.1	77.1	81
Cc1nc(Nc2ncc(C(=O)Nc3c(C)cccc3Cl)s2)cc(N2CCN(CCO)CC2)n1 [dasatanib] + O=C(Nc1cccc(Cl)c1)Nc1ncc(CCNc2ncnc3ccsc23)s1 [SNS314] (first compound 0.02 µM, partner dose 0.004 µM)	43.3	84.7	92.2	49.5	55.3	83	33.5	46.3	44.5	63.3
C[C@]1(c2nc3c(C(N)=O)cccc3[nH]2)CCCN1 [Veliparib] + COC(=O)c1sccc1S(=O)(=O)Nc1ccc(Nc2ccccc2)cc1OC [GSK0660] (first compound 7 µM, partner dose 5 µM)	113	95.8	93.1	95.3	93.8	78.2	84.7	121	111	99.9
OCCn1cc(-c2cnc3nnn(Cc4ccc5ncccc5c4)c3n2)cn1 + O=C(Nc1cccc(Cl)c1)Nc1ncc(CCNc2ncnc3ccsc23)s1 [SNS314] (first compound 5 µM, partner dose 0.004 µM)	60.7	63.3	82	94.6	68.4	71.5	36.7	47.9	87.8	74.7
Cc1nc(Nc2ncc(C(=O)Nc3c(C)cccc3Cl)s2)cc(N2CCN(CCO)CC2)n1 [dasatanib] + CC(C)(C)c1cnc(CSc2cnc(NC(=O)C3CCNCC3)s2)o1 [SNS-032] (first compound 0.02 µM, partner dose 0.05 µM)	70.1	81.7	108	46.7	89.8	76.9	61.1	55.4	38.3	108
C[C@]1(c2nc3c(C(N)=O)cccc3[nH]2)CCCN1 [Veliparib] + CCc1ccc(CCOc2ccc(CC3SC(=O)NC3=O)cc2)nc1 [pioglitazone] (first compound 7 µM, partner dose 10 µM)	70.7	96.3	103	93.1	83	80.6	69.3	80.4	74.7	112
C=CCn1c(=O)c2cnc(Nc3ccc(N4CCN(C)CC4)cc3)nc2n1-c1cccc(C(C)(C)O)n1 + O=C(O)c1ccc(-c2c[nH]c3ncc(-c4ccccc4)cc23)cc1C1CCCC1 [GSK650394] (first compound 0.1 µM, partner dose 0.8 µM)	65.9	72.3	88.8	65.7	80.8	84.2	91.4	105	73.4	73.8
C[C@]1(c2nc3c(C(N)=O)cccc3[nH]2)CCCN1 [Veliparib] + O=S(=O)(c1ccccc1)N(CC(F)(F)F)c1ccc(C(O)(C(F)(F)F)C(F)(F)F)cc1 [T0901317] (first compound 7 µM, partner dose 7 µM)	59.7	83.5	76.4	62.3	85.7	78.9	74	79.7	64.3	83.3
NC(=O)Nc1cc(-c2cccc(F)c2)sc1C(=O)N[C@H]1CCCNC1 + CN(NC(=O)CC(=O)NN(C)C(=S)c1ccccc1)C(=S)c1ccccc1 [STA4783] (first compound 0.1 µM, partner dose 0.03 µM)	14.5	63.8	87.4	51.1	109	66.4	25.7	76.1	20.8	68.1
C=CCn1c(=O)c2cnc(Nc3ccc(N4CCN(C)CC4)cc3)nc2n1-c1cccc(C(C)(C)O)n1 + CCN(CC)CCCCNc1ncc2cc(-c3cc(OC)cc(OC)c3)c(NC(=O)NC(C)(C)C)nc2n1 [PD173074] (first compound 0.1 µM, partner dose 0.5 µM)	39.1	73.5	62.4	41	84	58.4	76	79.8	37.6	72.8
C=CCn1c(=O)c2cnc(Nc3ccc(N4CCN(C)CC4)cc3)nc2n1-c1cccc(C(C)(C)O)n1 + COc1ccc(COc2ccc(Cc3cnc(N)nc3N)cc2OC)cc1 [GW2580] (first compound 0.1 µM, partner dose 5 µM)	38.6	76.1	81.3	48.8	79.5	74.3	76.5	88	62.2	93.8
CO[C@@H]1[C@H](N(C)C(=O)c2ccccc2)C[C@H]2O[C@]1(C)n1c3ccccc3c3c4c(c5c6ccccc6n2c5c31)C(=O)NC4 [Midostaurin] + Cn1cncc1[C@@](N)(c1ccc(Cl)cc1)c1ccc2c(c1)c(-c1cccc(Cl)c1)cc(=O)n2C [tipifarnib] (first compound 0.4 µM, partner dose 0.05 µM)	31	38.4	57.7	48.5	53.7	60.8	47.7	46.1	42.1	46.2
CO[C@@H]1[C@H](N(C)C(=O)c2ccccc2)C[C@H]2O[C@]1(C)n1c3ccccc3c3c4c(c5c6ccccc6n2c5c31)C(=O)NC4 [Midostaurin] + O=C1NC(=O)/C(=C/c2ccc(-c3ccc(F)cc3O)o2)S1 [AS252424] (first compound 0.4 µM, partner dose 5 µM)	59.8	39.2	85.2	54.1	73.3	59	53.8	58.2	23.6	86.6
Cc1nc(Nc2ncc(C(=O)Nc3c(C)cccc3Cl)s2)cc(N2CCN(CCO)CC2)n1 [dasatanib] + Cc1cc(N2CCOCC2)cc2[nH]c(-c3c(NC[C@@H](O)c4cccc(Cl)c4)cc[nH]c3=O)nc12 [BMS536924] (first compound 0.02 µM, partner dose 1 µM)	46.3	55.9	78.7	63.4	77.5	73.1	50.2	39.8	17.4	74.3

— the supplement of paper PMC4604168 (melanoma cell lines)
